Results reported in PubChem BioAssay AID485364 (National Center for Advancing Translational Sciences (NCATS), 2010).
Out of some 360,000 compounds screened, about 11,000 (3.1%) were called active. The inconclusive results got no clear call from the source; some entries with a clear call stand among them for comparison. The call rests on the fitted dose curve; in most records, active means well fitted inhibition curve with a large enough effect; inconclusive means small, poorly fitted or top-dose-only effect; inactive means no such curve, though single readings can be large or run the other way. Potencies of inconclusive entries are left out as doubtful fits.

The compounds below were run against Schistosoma mansoni thioredoxin glutathione reductase (TGR) (UniProt Q962Y6) (assay: qHTS Assay for the Inhibitors of Schistosoma Mansoni Peroxiredoxins). Conditions: purified TGR, DTNB reduction, TNB absorbance 405 nm; activity change, negative = inhibition: at 114 µM (top of the series) unless noted.
In short: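 Kinetic colorimetric format: TGR-catalysed, NADPH-driven DTNB reduction monitored via TNB absorbance. Enzyme dispensed at 20 nM; compound exposure 15 min at room temperature before reaction start.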
Further: nearly all actives have a fitted effect of over 60% in size.
On the % scale 0 is the no-effect control and ±100 the full control effect; potency means the concentration at half of the fitted maximal effect; tags describe the fitted curve by direction and shape.

| Compound | activity change, negative = inhibition | Potency |
| --- | --- | --- |
| CS(=O)(=O)N(CC(=O)O)Cc1cccc(CN(CC(=O)O)S(C)(=O)=O)c1 | inactive: -15.6% | – |
| COC(=O)N=Nc1c(O)n(Cc2ccccc2)c2ccccc12 | inactive: 11.8% | – |
| CCN(CC)C(=O)CC(c1ccc2c(c1)OCO2)c1c(OC)cc(OC)c2ccc(=O)oc12 (stereo not given) | inactive: -22.7% | – |
| COc1ccc(OC)c(NC(=O)CS(=O)(=O)c2cn(CC(=O)N3CCOCC3)c3ccccc23)c1 | – | inconclusive [inhibitor, partial curve, poor fit] |
| CC(C)(C)c1ccc(S(=O)(=O)N2CCN(CC(=O)N3CC(=O)Nc4ccccc43)CC2)cc1 | – | inconclusive [inhibitor, partial curve] |
| N#CC1(NC(=O)COc2ccc(S(=O)(=O)N3CCCC3)cc2[N+](=O)[O-])CCCCC1 | – | inconclusive [inhibitor, partial curve] |
| CCOC(=O)c1ccc(NC(=S)NC2CCCC2)cc1 | inactive: -27% | – |
| N#CCCN(C(=O)COC(=O)CCC(=O)c1ccc(F)cc1)c1ccccc1 | – | active: 39.8 µM |
| CCOc1cc2[nH]c(=S)n(CCCN(CC)CC)c(=O)c2cc1OCC | – | active: 6.31 µM |
| OCC[n+]1c2ccccc2nc2ccc(N3CCOCC3)cc21 | – | inconclusive [inhibitor, partial curve] |
| COc1ccc(CCNC(=O)C(=O)NCC(c2ccco2)S(=O)(=O)c2cccs2)cc1OC (stereo not given) | – | active: 3.55 µM |
| COCC(C)n1c(C)cc(C(=O)COC(=O)c2c(NC(C)=O)sc(C)c2C)c1C (stereo not given) | inactive: 0% | – |
| Cc1nn(C(=O)c2cccc(Cl)c2)c(C)c1S(=O)(=O)N1CCOCC1 | – | active: 20 µM |
| CC(O)c1nc2ccccc2n1CCCCOc1ccccc1 (stereo not given) | inactive: 5.81% | – |
| Cc1cccc(CNCCc2c[nH]c3ccccc23)c1 | – | inconclusive [inhibitor, partial curve] |
| C=CCNC(=S)NC(=O)c1ccc(C)c(Br)c1 | – | active: 31.6 µM |
| CCN(CC)c1ccc(NC(=S)NCC2CCCO2)cc1 (stereo not given) | – | inconclusive [inhibitor, partial curve] |
| Cc1ccccc1N/N=C1\CCCNC1=O | – | inconclusive [inhibitor, partial curve] |
| COc1cc(NC(=O)Nc2ccc(C)cc2)cc([N+](=O)[O-])c1 | inactive: -6.62% | – |
| COC(=O)NC(=C(Cl)Cl)S(=O)(=O)c1ccccc1 | – | inconclusive [inhibitor, single point] |
| COc1ccccc1NC(=O)Nc1ccc(Cc2ccncc2)cc1 | inactive: 9.22% | – |
| Cc1cccc(N2C(=O)NC(=O)/C(=C\c3ccc4c(c3)CCCN4Cc3ccccc3)C2=O)c1 | – | inconclusive [inhibitor, partial curve] |
| CN(C(=O)Cn1nc(Cc2cccnc2)c2ccccc2c1=O)c1cccc(C(F)(F)F)c1 | inactive: 7.8% | – |
| Clc1ccc2nc(CN3CCCc4ccccc43)cn2c1 | – | inconclusive [inhibitor, partial curve] |
| S=C(Nc1nc2c(s1)CCCC2)NC1CC1 | – | active: 2.51 µM |

| Compound | activity change, negative = inhibition | Potency |
| --- | --- | --- |
| CCOC(=O)NC(C(Cl)(Cl)Cl)S(=O)(=O)c1ccccc1 (stereo not given) | – | active: 25.1 µM |
| CCCCn1c(C)c(C(=O)O)c2cc(OC)ccc21 | inactive: 0.558% | – |
| Cc1noc(C)c1S(=O)(=O)N1CCCC(C(=O)NCCc2ccc(Cl)cc2)C1 (stereo not given) | inactive: -6.96% | – |
| Cc1ccc2cc(CN(Cc3ccc4c(c3)OCO4)Cc3nnnn3Cc3ccco3)c(=O)[nH]c2c1 | – | inconclusive [inhibitor, partial curve] |
| COc1ccc(-c2nnc(-c3cccnc3)o2)cc1 | inactive: 11.9% | – |
| C/C(=N\Nc1cc(C)nc(-c2ccccc2O)n1)c1ccccc1O | inactive: 10.5% | – |
| CN(C)C(=O)c1ccc(NC(=O)c2cccc(S(=O)(=O)N3CCCc4ccccc43)c2)cc1 | inactive: 2.01% | – |
| CN(C)CC(CCC(CN(C)C)C(=O)c1ccccc1)C(=O)c1ccccc1 (stereo not given) | – | active: 2 µM |
| C=C1C2C[C@@]3([C@@H]1O)[C@@H](C[C@@H]2O)[C@@]12C4[C@@H]3C[C@@H]1[C@@](C)(CC[C@@H]2O)CN4CC | – | inconclusive [inhibitor, partial curve] |
| CC(=O)c1cccc(NC(=O)CCCSc2ccccc2)c1 | – | inconclusive [inhibitor, single point] |
| COCCCNC(=S)Nc1ccc2nc(N3CCOCC3)cc(C)c2c1 | – | inconclusive [inhibitor, partial curve] |
| COc1cccc(CNCc2ccc(OC)cc2OC)c1 | – | inconclusive [inhibitor, partial curve] |
| N#Cc1c(N)sc(=S)c2c1CCCC2 | – | active: 28.2 µM |
| CC(C)N1CC=C2C(C#N)=C(N)C(C#N)(C#N)[C@H](c3ccoc3)[C@H]2C1 | – | inconclusive [inhibitor, partial curve] |
| COc1ccc(CNC(=O)COC(=O)CCc2nc3ccccc3c(=O)[nH]2)cc1 | – | inconclusive [inhibitor, single point] |
| Nc1c(N(Cc2ccco2)C(=O)c2cccc(F)c2)c(=O)[nH]c(=O)n1Cc1ccccc1 | inactive: -25% | – |
| O=C(N/N=C/c1ccc([N+](=O)[O-])cc1)c1cc(C2CC2)[nH]n1 | – | inconclusive [inhibitor, partial curve] |
| O=C(CSc1nc2ccccc2[nH]1)Nc1ccccc1F | inactive: -11.1% | – |
| Cc1cc(C)c(C(=O)COC(=O)CCn2c(C)csc2=O)cc1C | – | inconclusive [inhibitor, single point] |
| COc1ccc(S(=O)(=O)Nc2cc3[nH]c(=O)oc3cc2C)cc1 | inactive: -10.7% | – |
| CC(=O)c1c(C(=O)O)[nH]c(C(=O)O)c1C | – | active: 10 µM |
| O=C(NC1CN2CCC1CC2)c1ccc(-c2ccc([N+](=O)[O-])cc2)o1 (stereo not given) | – | inconclusive [inhibitor, single point] |
| Cc1ccc2nc(/C=C/c3cccc(F)c3)ccc2c1 | – | inconclusive [inhibitor, full curve] |
| COC(=O)c1sccc1NC(=S)Nc1ccccc1 | – | inconclusive [inhibitor, partial curve] |
| CCOc1ccc(CNC(=O)c2oc3c(c2C)-c2nn(Cc4cccc(Cl)c4)cc2CC3)cc1 | – | inconclusive [inhibitor, single point] |

| Compound | activity change, negative = inhibition | Potency |
| --- | --- | --- |
| CC(C)c1ccc(S(=O)(=O)N2CCN(Cc3cccc(F)c3)CC2)cc1 | – | inconclusive [inhibitor, partial curve] |
| O=C(c1ccco1)n1c(=S)nc2ccccn21 | – | active: 50.1 µM |
| CCN(CC)CCN1C(=O)C(O)=C(C(C)=O)C1c1ccccc1 (stereo not given) | – | inconclusive [inhibitor, partial curve] |
| NC(=O)c1c(N)sc2c1CCCC2 | – | active: 12.6 µM |
| O=C(O)Cn1cc2c(n1)CCCC2 | inactive: -1.89% | – |
| O=C(CSc1ccccc1C(=O)NCCCN1CCCC1=O)NCc1ccco1 | – | inconclusive [inhibitor, partial curve] |
| CCOc1ccc(NC(=O)C2CC(=O)N3CCCN=C3S2)cc1 (stereo not given) | – | inconclusive [inhibitor, partial curve] |
| CC1=NN(c2ccc([N+](=O)[O-])cc2)C(=O)/C1=C\N(C)C | – | inconclusive [inhibitor, partial curve] |
| O=C(NCc1ccccc1F)C1CCN(C(=O)NCc2ccccc2)CC1 | – | inconclusive [inhibitor, single point] |
| Cn1c(N)c(C(=O)COC(=O)c2ccccc2NCc2ccco2)c(=O)n(C)c1=O | – | inconclusive [inhibitor, partial curve] |
| O=C1c2oc3ccccc3c(=O)c2C(c2cccnc2)N1Cc1ccco1 (stereo not given) | – | inconclusive [inhibitor, partial curve] |
| CC1(C)C(Cl)C(=O)C(C(=O)c2ccccc2)C(=O)C1Cl (stereo not given) | – | inconclusive [inhibitor, partial curve, poor fit] |
| O=C(NC1CC1)C1CCN(S(=O)(=O)c2ccc(Cl)c([N+](=O)[O-])c2)CC1 | – | inconclusive [inhibitor, partial curve] |
| CN(C)S(=O)(=O)c1ccc2nnn(O)c2c1 | – | inconclusive [inhibitor, partial curve] |
| COc1ccccc1C1C2=C(CCCC2=O)N(CC(=O)O)C2=C1C(=O)CCC2 | – | inconclusive [inhibitor, partial curve] |
| COc1cc(OC)c(OC)cc1/C=C1/C(=O)NC(=O)N(Cc2ccccc2)C1=O | – | inconclusive [inhibitor, full curve] |
| COc1ccc(CNC(=O)c2cnc(C)cn2)c(OC)c1 | – | inconclusive [inhibitor, partial curve] |
| CCC(=O)NC(=S)Nc1ccc(NC(=O)c2ccco2)c(OC)c1 | – | inconclusive [inhibitor, partial curve] |
| COc1ccc2ccccc2c1C1CC(=O)N2CN(Cc3ccco3)CSC2=C1C#N (stereo not given) | – | active: 5.62 µM |
| CCOc1ccc(C2C(C(=O)Nc3ccccc3)=C(C)Nc3nc(-c4ccccc4Cl)nn32)cc1OC (stereo not given) | inactive: 7.7% | – |
| Cc1ccccc1NC(=O)C(=O)NCC(c1ccc2c(c1)OCO2)N1CCN(c2ccccc2)CC1 (stereo not given) | inactive: 0.258% | – |
| O=C(CCNc1cccc(Cl)c1)c1ccco1 | – | active: 11.2 µM |
| Clc1ccc2nc(-c3ccc(Cl)nc3)[nH]c2c1 | inactive: 5.4% | – |
| Cc1ccc(CN2CCCC(C(=O)c3sccc3C)C2)o1 (stereo not given) | – | inconclusive [inhibitor, partial curve] |
| COCC(=O)N1CCC(Oc2ccc(C(=O)N3C[C@@H](C)O[C@@H](C)C3)cc2)CC1 | – | active: 39.8 µM |
